# Data from paper PMC10668032.
# Some of the results follow. At the low end of the ranking, values are background and their order means little.
# Target: SIX1 homeodomain (reference allele) (UniProt Q15475)
# Experiment: universal protein binding microarray
# Details: Universal all-10-mer PBM (8x60K, AMADID 030236), 300 nM GST-tagged protein, Alexa Fluor 488 anti-GST; buffer, salt, pH and temperature not stated; high values mean tight binding; most listed sequences are background and not binding sites; double strand, one strand shown
row,Sequence,binding signal [E-score]
1,GTAGACGA,0.0245
2,ATTGGCCC,-0.244
3,ACTACACG,-0.00271
4,AAACTCAG,-0.198
5,CTGAACGC,-0.191
6,AGGCATGA,-0.207
7,GAATGTAA,-0.109
8,CTAAACAA,-0.22
9,GCCTTGCA,-0.18
10,CCAGGCAG,0.0426
11,ACCGAGGT,0.122
12,CCTTCTTA,0.0256
13,AGGAACAC,0.0451
14,CAAGGCCG,-0.118
15,GCAGAATA,0.108
16,ACCTAACA,0.0828
17,CACACTGA,0.0892
18,ACATTGGG,-0.175
19,ACTTGTGG,-0.0851
20,TGATCACA,0.254
21,AGCAGTCG,-0.162
22,AGTTCAAG,-0.194
23,CCGGCTGA,0.0686
24,CCGCACAG,-0.0162
25,ATAGGTGA,0.0531

row,Sequence,binding signal [E-score]
1,CGAGGGAA,-0.117
2,GCAGCTCC,-0.157
3,CATACGCA,-0.00165
4,AGTCTACA,-0.166
5,AGGGCACT,-0.328
6,ACGCCAGA,0.0316
7,GGAAATCC,-0.0963
8,TAGTTTGA,0.0493
9,GTGCTCGA,-0.231
10,ATTAGCAG,-0.0522
11,ATCCAAGA,0.155
12,GCTCTGCA,-0.221
13,CCCTTACA,-0.067
14,CAGGAGCG,-0.118
15,GACCGAGC,-0.167
16,AACGCGGA,-0.143
17,ACAGAAAC,-0.144
18,ATGCATCC,0.0381
19,AGTGTGGC,-0.165
20,CATAGACC,-0.0122
21,ACTCTCAA,-0.125
22,TCGGTGAA,-0.0606
23,TTCCAGAA,-0.0604
24,GTACTCTA,0.0466
25,CACACCGC,0.164

row,Sequence,binding signal [E-score]
1,ATTTCGAA,-0.307
2,GCATGCAC,-0.143
3,CGCAGAAG,-0.139
4,CCCAGTCA,-0.18
5,AACAAACG,-0.226
6,ACCACCTA,-0.0312
7,CAGGCGTC,-0.117
8,ACAGCATG,-0.0806
9,GGACAGAC,-0.192
10,AGAGCTGC,-0.132
11,AGGTACAT,0.00426
12,CTAGCTAC,-0.0574
13,CCATCACG,0.0582
14,CAGTTCAG,-0.0715
15,GTCCGCAC,-0.257
16,AAAGTGAG,0.0798
17,TCCGCCAA,0.042
18,TCAAAAAA,-0.262
19,GACCACTA,-0.0946
20,CGTTATAA,-0.0153
21,CCAGGTGA,0.0318
22,CACTGTCC,0.0661
23,TGGAACAA,-0.0711
24,GATTTGAA,-0.19
25,GAGCTACC,-0.0996

row,Sequence,binding signal [E-score]
1,GATGCAAA,-0.0767
2,GTATGCCA,0.0821
3,CGTTGTAA,-0.137
4,AAACTCAC,-0.154
5,AATGACAT,-0.0364
6,AAATCCTT,-0.113
7,CGATTAAG,-0.231
8,AAGAACTC,-0.185
9,AGAGTGAA,-0.149
10,CTCAACGC,-0.168
11,GCTGGTCC,-0.0926
12,ACGGTTGG,-0.0417
13,AAGAGAAA,-0.138
14,GGATTACC,0.271
15,CATCTAAC,0.0244
16,GGTAGTAA,-0.0504
17,AATCGCAC,-0.0975
18,TCTATACA,0.243
19,CAACTCGA,-0.0381
20,GGGACACA,0.0444
21,ATGCGTGC,-0.0992
22,ACGGGGCC,-0.159
23,ACTGCAAA,-0.0245
24,CATCTGAG,0.0848
25,ACAGGACT,-0.163

row,Sequence,binding signal [E-score]
1,AACCGCTA,0.00775
2,GCGGGTCA,-0.0674
3,CCGATTAC,0.0959
4,ACCGTGAA,-0.243
5,CCGTTTCC,-0.237
6,AGTGGTCA,-0.209
7,AAATGGGT,-0.0909
8,AATAGTAC,0.0505
9,CCCTAACG,-0.0971
10,GCGCACGA,-0.0712
11,CATACCGA,0.112
12,CCTCGCCA,-0.106
13,ACTACCCT,0.00554
14,AACCCATA,0.263
15,CCTCCAAA,0.0312
16,ATTAAACA,-0.133
17,AGTAATTG,-0.107
18,CGATAGTA,0.263
19,AAGAAGAA,0.00103
20,ACACTGGT,0.0103
21,TCACTCGA,0.124
22,AGGGACGA,-0.129
23,CCTGACTA,0.101
24,ATGCTGGC,-0.153
25,TCACATGA,0.166

row,Sequence,binding signal [E-score]
1,GGATCTCA,0.298
2,ACGGGTGG,0.111
3,CGGCAAAC,-0.0372
4,TATAATAA,0.1
5,AGTCGCCC,-0.206
6,GGTGTCAC,0.476
7,ACTGAAGC,0.0644
8,CACTAGGC,-0.179
9,GCTGATAC,0.459
10,GCACTTCC,-0.345
11,CCACAAGA,0.0343
12,ATTGTAAC,0.0267
13,ACCGCGAG,0.00066
14,CACGACTA,-0.0311
15,CTCAGTAC,-0.143
16,AATAAATA,0.0556
17,GATATACC,0.459
18,CGAATTTC,0.0192
19,GAGTCACA,-0.0163
20,CATGTCGA,0.0339
21,CCCGATTA,0.187
22,CGGGATAA,0.17
23,ATGTTCTC,-0.0557
24,ATGAATCC,0.0152
25,AACTAGCT,-0.13

row,Sequence,binding signal [E-score]
1,ACTCCCAT,0.00598
2,AACATTGG,-0.312
3,ACCGCCGT,-0.0402
4,GCAATTCA,-0.211
5,AGCGGAGG,-0.226
6,CCTTGACC,-0.128
7,GATCATGA,0.273
8,GGGAACGA,-0.139
9,CGATCTAA,0.11
10,ATGCTATC,0.241
11,TGATAGCA,0.323
12,CCAACAGC,-0.0815
13,CGTCCCGC,-0.201
14,CAAGCGTA,-0.0147
15,ATCAACCA,0.139
16,AGTGAAGG,-0.0817
17,GCTAATAA,-0.0747
18,AGACCGCC,-0.0301
19,TATCGGGA,0.317
20,CCGCGGAC,-0.126
21,AACAACAA,-0.142
22,AGCAGCTG,-0.219
